According to patent US20060286112A1:

Substrate: I domain-GST, recombinant GST fusion protein containing amino acids 127-340 of the human VLA-1 α1 subunit (human) (UniProt P56199)
Experiment: SPR, mAb captured on anti-human IgG, I domain-GST in solution, 1 mM Mg2+

Chain of UniProt P56199 (P56199 151-364 limits assumed, form in doubt): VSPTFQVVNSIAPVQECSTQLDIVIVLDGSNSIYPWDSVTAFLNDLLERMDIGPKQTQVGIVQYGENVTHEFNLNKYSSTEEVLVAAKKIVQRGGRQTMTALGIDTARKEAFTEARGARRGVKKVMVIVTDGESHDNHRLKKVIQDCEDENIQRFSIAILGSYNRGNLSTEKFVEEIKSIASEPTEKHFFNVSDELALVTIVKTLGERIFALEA

B1: 7.46 (antibody, V domains shown)
VH: QVQLQESGPGLVKPSETLSLTCTVSGGSFSSYYWSWIRQPAGKGLEWIGRIYTSGSTNYNPSLKSRVTMSVDTSKNQFSLKLSSVTAADTAVYYCAREGYDFWSGYYNYYYGMDVWGQGTTVTVS
VL: [letters of about 100 residues left out]
  Kd: 2.55 nM
  koff: 9.95e-05 s⁻¹
  kon: 39000 M⁻¹ s⁻¹
